T1: human TRIM21 PRYSPRY domain with N-terminal 6xHis tag (human)
T1 construct: Expressed from pET28a in E. coli; also called hTRIM21
T1 chain: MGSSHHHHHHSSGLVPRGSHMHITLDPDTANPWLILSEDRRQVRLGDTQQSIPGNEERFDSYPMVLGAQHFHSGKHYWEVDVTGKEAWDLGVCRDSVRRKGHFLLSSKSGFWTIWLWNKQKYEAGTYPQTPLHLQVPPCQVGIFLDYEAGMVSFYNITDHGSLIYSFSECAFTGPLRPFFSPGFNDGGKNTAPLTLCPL

B1: 3D8VH-G1m/hT4VL-KT0.Avi E345K (antibody, human IgG1, kappa)
heavy: EVQLVESGGGLVQPGGSLRLSCAASGYTFTSYVMHWVRQAPGKGLEWVSAINPYNDGNYYADSVKGRFTISRDNSRKTLYLQMNSLRAEDTAVYYCARGAYKRGYAMDYWGQGTTVTVSSASTKGPSVFPLAPSSKSTSGGTAALGCLVKDYFPEPVTVSWNSGALTSGVHTFPAVLQSSGLYSLSSVVTVPSSSLGTQTYICNVNHKPSNTKVDKKV[human IgG1 Fc with E345K (EU numbers) omitted here]
light: [about 200 residues omitted here]GGGGSGLNDIFEAQKIEWHE
B2: 3D8VH-G1m/hT4VL-KT0.Avi H433A (antibody, human IgG1, kappa)
heavy: EVQLVESGGGLVQPGGSLRLSCAASGYTFTSYVMHWVRQAPGKGLEWVSAINPYNDGNYYADSVKGRFTISRDNSRKTLYLQMNSLRAEDTAVYYCARGAYKRGYAMDYWGQGTTVTVSSASTKGPSVFPLAPSSKSTSGGTAALGCLVKDYFPEPVTVSWNSGALTSGVHTFPAVLQSSGLYSLSSVVTVPSSSLGTQTYICNVNHKPSNTKVDKKV[human IgG1 Fc with H433A (EU numbers) omitted here]
light: [about 200 residues omitted here]GGGGSGLNDIFEAQKIEWHE
B3: 3D8VH-G1m/hT4VL-KT0.Avi M428R (antibody, human IgG1, kappa)
heavy: EVQLVESGGGLVQPGGSLRLSCAASGYTFTSYVMHWVRQAPGKGLEWVSAINPYNDGNYYADSVKGRFTISRDNSRKTLYLQMNSLRAEDTAVYYCARGAYKRGYAMDYWGQGTTVTVSSASTKGPSVFPLAPSSKSTSGGTAALGCLVKDYFPEPVTVSWNSGALTSGVHTFPAVLQSSGLYSLSSVVTVPSSSLGTQTYICNVNHKPSNTKVDKKV[human IgG1 Fc with M428R (EU numbers) omitted here]
light: [about 200 residues omitted here]GGGGSGLNDIFEAQKIEWHE
B4: 3D8VH-G1m/hT4VL-KT0.Avi N434G (antibody, human IgG1, kappa)
heavy: EVQLVESGGGLVQPGGSLRLSCAASGYTFTSYVMHWVRQAPGKGLEWVSAINPYNDGNYYADSVKGRFTISRDNSRKTLYLQMNSLRAEDTAVYYCARGAYKRGYAMDYWGQGTTVTVSSASTKGPSVFPLAPSSKSTSGGTAALGCLVKDYFPEPVTVSWNSGALTSGVHTFPAVLQSSGLYSLSSVVTVPSSSLGTQTYICNVNHKPSNTKVDKKV[human IgG1 Fc with N434G (EU numbers) omitted here]
light: [about 200 residues omitted here]GGGGSGLNDIFEAQKIEWHE
B5: 3D8VH-G1m/hT4VL-KT0.Avi H435F (antibody, human IgG1, kappa)
heavy: EVQLVESGGGLVQPGGSLRLSCAASGYTFTSYVMHWVRQAPGKGLEWVSAINPYNDGNYYADSVKGRFTISRDNSRKTLYLQMNSLRAEDTAVYYCARGAYKRGYAMDYWGQGTTVTVSSASTKGPSVFPLAPSSKSTSGGTAALGCLVKDYFPEPVTVSWNSGALTSGVHTFPAVLQSSGLYSLSSVVTVPSSSLGTQTYICNVNHKPSNTKVDKKV[human IgG1 Fc with H435F (EU numbers) omitted here]
light: [about 200 residues omitted here]GGGGSGLNDIFEAQKIEWHE
B6: 3D8VH-G1m/hT4VL-KT0.Avi H435A (antibody, human IgG1, kappa)
heavy: EVQLVESGGGLVQPGGSLRLSCAASGYTFTSYVMHWVRQAPGKGLEWVSAINPYNDGNYYADSVKGRFTISRDNSRKTLYLQMNSLRAEDTAVYYCARGAYKRGYAMDYWGQGTTVTVSSASTKGPSVFPLAPSSKSTSGGTAALGCLVKDYFPEPVTVSWNSGALTSGVHTFPAVLQSSGLYSLSSVVTVPSSSLGTQTYICNVNHKPSNTKVDKKV[human IgG1 Fc with H435A (EU numbers) omitted here]
light: [about 200 residues omitted here]GGGGSGLNDIFEAQKIEWHE
B7: 3D8VH-G1m/hT4VL-KT0.Avi H433L (antibody, human IgG1, kappa)
heavy: EVQLVESGGGLVQPGGSLRLSCAASGYTFTSYVMHWVRQAPGKGLEWVSAINPYNDGNYYADSVKGRFTISRDNSRKTLYLQMNSLRAEDTAVYYCARGAYKRGYAMDYWGQGTTVTVSSASTKGPSVFPLAPSSKSTSGGTAALGCLVKDYFPEPVTVSWNSGALTSGVHTFPAVLQSSGLYSLSSVVTVPSSSLGTQTYICNVNHKPSNTKVDKKV[human IgG1 Fc with H433L (EU numbers) omitted here]
light: [about 200 residues omitted here]GGGGSGLNDIFEAQKIEWHE
B8: 3D8VH-G1m/hT4VL-KT0.Avi L432R (antibody, human IgG1, kappa)
heavy: EVQLVESGGGLVQPGGSLRLSCAASGYTFTSYVMHWVRQAPGKGLEWVSAINPYNDGNYYADSVKGRFTISRDNSRKTLYLQMNSLRAEDTAVYYCARGAYKRGYAMDYWGQGTTVTVSSASTKGPSVFPLAPSSKSTSGGTAALGCLVKDYFPEPVTVSWNSGALTSGVHTFPAVLQSSGLYSLSSVVTVPSSSLGTQTYICNVNHKPSNTKVDKKV[human IgG1 Fc with L432R (EU numbers) omitted here]
light: [about 200 residues omitted here]GGGGSGLNDIFEAQKIEWHE
B9: 3D8VH-G1m/hT4VL-KT0.Avi T437L (antibody, human IgG1, kappa)
heavy: EVQLVESGGGLVQPGGSLRLSCAASGYTFTSYVMHWVRQAPGKGLEWVSAINPYNDGNYYADSVKGRFTISRDNSRKTLYLQMNSLRAEDTAVYYCARGAYKRGYAMDYWGQGTTVTVSSASTKGPSVFPLAPSSKSTSGGTAALGCLVKDYFPEPVTVSWNSGALTSGVHTFPAVLQSSGLYSLSSVVTVPSSSLGTQTYICNVNHKPSNTKVDKKV[human IgG1 Fc with T437L (EU numbers) omitted here]
light: [about 200 residues omitted here]GGGGSGLNDIFEAQKIEWHE
B10: 3D8VH-G1m/hT4VL-KT0.Avi Q438E (antibody, human IgG1, kappa)
heavy: EVQLVESGGGLVQPGGSLRLSCAASGYTFTSYVMHWVRQAPGKGLEWVSAINPYNDGNYYADSVKGRFTISRDNSRKTLYLQMNSLRAEDTAVYYCARGAYKRGYAMDYWGQGTTVTVSSASTKGPSVFPLAPSSKSTSGGTAALGCLVKDYFPEPVTVSWNSGALTSGVHTFPAVLQSSGLYSLSSVVTVPSSSLGTQTYICNVNHKPSNTKVDKKV[human IgG1 Fc with Q438E (EU numbers) omitted here]
light: [about 200 residues omitted here]GGGGSGLNDIFEAQKIEWHE
B11: 3D8VH-G1m/hT4VL-KT0.Avi T437V (antibody, human IgG1, kappa)
heavy: EVQLVESGGGLVQPGGSLRLSCAASGYTFTSYVMHWVRQAPGKGLEWVSAINPYNDGNYYADSVKGRFTISRDNSRKTLYLQMNSLRAEDTAVYYCARGAYKRGYAMDYWGQGTTVTVSSASTKGPSVFPLAPSSKSTSGGTAALGCLVKDYFPEPVTVSWNSGALTSGVHTFPAVLQSSGLYSLSSVVTVPSSSLGTQTYICNVNHKPSNTKVDKKV[human IgG1 Fc with T437V (EU numbers) omitted here]
light: [about 200 residues omitted here]GGGGSGLNDIFEAQKIEWHE
B12: 3D8VH-G1m/hT4VL-KT0.Avi Q438G (antibody, human IgG1, kappa)
heavy: EVQLVESGGGLVQPGGSLRLSCAASGYTFTSYVMHWVRQAPGKGLEWVSAINPYNDGNYYADSVKGRFTISRDNSRKTLYLQMNSLRAEDTAVYYCARGAYKRGYAMDYWGQGTTVTVSSASTKGPSVFPLAPSSKSTSGGTAALGCLVKDYFPEPVTVSWNSGALTSGVHTFPAVLQSSGLYSLSSVVTVPSSSLGTQTYICNVNHKPSNTKVDKKV[human IgG1 Fc with Q438G (EU numbers) omitted here]
light: [about 200 residues omitted here]GGGGSGLNDIFEAQKIEWHE
B13: 3D8VH-G1m/hT4VL-KT0.Avi Y436T (antibody, human IgG1, kappa)
heavy: EVQLVESGGGLVQPGGSLRLSCAASGYTFTSYVMHWVRQAPGKGLEWVSAINPYNDGNYYADSVKGRFTISRDNSRKTLYLQMNSLRAEDTAVYYCARGAYKRGYAMDYWGQGTTVTVSSASTKGPSVFPLAPSSKSTSGGTAALGCLVKDYFPEPVTVSWNSGALTSGVHTFPAVLQSSGLYSLSSVVTVPSSSLGTQTYICNVNHKPSNTKVDKKV[human IgG1 Fc with Y436T (EU numbers) omitted here]
light: [about 200 residues omitted here]GGGGSGLNDIFEAQKIEWHE
B14: 3D8VH-G1m/hT4VL-KT0.Avi Q311E (antibody, human IgG1, kappa)
heavy: EVQLVESGGGLVQPGGSLRLSCAASGYTFTSYVMHWVRQAPGKGLEWVSAINPYNDGNYYADSVKGRFTISRDNSRKTLYLQMNSLRAEDTAVYYCARGAYKRGYAMDYWGQGTTVTVSSASTKGPSVFPLAPSSKSTSGGTAALGCLVKDYFPEPVTVSWNSGALTSGVHTFPAVLQSSGLYSLSSVVTVPSSSLGTQTYICNVNHKPSNTKVDKKV[human IgG1 Fc with Q311E (EU numbers) omitted here]
light: [about 200 residues omitted here]GGGGSGLNDIFEAQKIEWHE
B15: 3D8VH-G1m/hT4VL-KT0.Avi T437D (antibody, human IgG1, kappa)
heavy: EVQLVESGGGLVQPGGSLRLSCAASGYTFTSYVMHWVRQAPGKGLEWVSAINPYNDGNYYADSVKGRFTISRDNSRKTLYLQMNSLRAEDTAVYYCARGAYKRGYAMDYWGQGTTVTVSSASTKGPSVFPLAPSSKSTSGGTAALGCLVKDYFPEPVTVSWNSGALTSGVHTFPAVLQSSGLYSLSSVVTVPSSSLGTQTYICNVNHKPSNTKVDKKV[human IgG1 Fc with T437D (EU numbers) omitted here]
light: [about 200 residues omitted here]GGGGSGLNDIFEAQKIEWHE
B16: 3D8VH-G1m/hT4VL-KT0.Avi S440H (antibody)
heavy: EVQLVESGGGLVQPGGSLRLSCAASGYTFTSYVMHWVRQAPGKGLEWVSAINPYNDGNYYADSVKGRFTISRDNSRKTLYLQMNSLRAEDTAVYYCARGAYKRGYAMDYWGQGTTVTVSSASTKGPSVFPLAPSSKSTSGGTAALGCLVKDYFPEPVTVSWNSGALTSGVHTFPAVLQSSGLYSLSSVVTVPSSSLGTQTYICNVNHKPSNTKVDKKV[human IgG1 Fc with S440H (EU numbers) omitted here]
light: [about 200 residues omitted here]GGGGSGLNDIFEAQKIEWHE
B17: 3D8VH-G1m/hT4VL-KT0.Avi Y436D (antibody, human IgG1, kappa)
heavy: EVQLVESGGGLVQPGGSLRLSCAASGYTFTSYVMHWVRQAPGKGLEWVSAINPYNDGNYYADSVKGRFTISRDNSRKTLYLQMNSLRAEDTAVYYCARGAYKRGYAMDYWGQGTTVTVSSASTKGPSVFPLAPSSKSTSGGTAALGCLVKDYFPEPVTVSWNSGALTSGVHTFPAVLQSSGLYSLSSVVTVPSSSLGTQTYICNVNHKPSNTKVDKKV[human IgG1 Fc with Y436D (EU numbers) omitted here]
light: [about 200 residues omitted here]GGGGSGLNDIFEAQKIEWHE

Target: T1, human TRIM21 PRYSPRY domain with …
Experiment: SPR, Ab captured on Protein L

binding result | Binder
no binding (tested: 200 nM) | B1
no binding (tested: 200 nM) | B2
no binding (tested: 200 nM) | B3
no binding (tested: 200 nM) | B4
no binding (tested: 200 nM) | B5
no binding (tested: 200 nM) | B6
no binding (tested: 200 nM) | B7
no binding (tested: 200 nM) | B8

Target: T1, human TRIM21 PRYSPRY domain with …
Experiment: SPR, Ab captured on Protein L, hTRIM21 12.5-200 nM

Kd | koff | kon | Binder
26.3 nM | 0.0034 s⁻¹ | 129000 M⁻¹ s⁻¹ | B9
11.1 nM | 0.0319 s⁻¹ | 2.87e+06 M⁻¹ s⁻¹ | B10
27.2 nM | 0.00329 s⁻¹ | 121000 M⁻¹ s⁻¹ | B11
89 nM | 0.45 s⁻¹ | 5.06e+06 M⁻¹ s⁻¹ | B12
17.7 nM | 0.0242 s⁻¹ | 1.37e+06 M⁻¹ s⁻¹ | B13
19.6 nM | 0.00288 s⁻¹ | 147000 M⁻¹ s⁻¹ | B14
12.5 nM | 0.03 s⁻¹ | 2.4e+06 M⁻¹ s⁻¹ | B15
54.6 nM | 0.265 s⁻¹ | 4.85e+06 M⁻¹ s⁻¹ | B16
23.8 nM | 0.0036 s⁻¹ | 151000 M⁻¹ s⁻¹ | B17

— patent US20210238308A1 (Chugai, published 2021)
